The values that follow come from PubChem BioAssay AID1240 (Sanford-Burnham Center for Chemical Genomics, 2008).

The campaign covered roughly 50,000 compounds. About 800 (1.6%) showed an effect of 50% or more. Some of the results follow.

This experiment has as its target Bcl-2-like protein 10 (Homo sapiens) (UniProt Q9HD36). Kind of experiment: Phenotype converters, Bcl-B/TR3 peptide binding displacement, primary biochemical FP (AID 1240).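 Note: 0% = Bcl-B with tracer peptide and DMSO and 100% = tracer peptide lacking Bcl-B.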 The settings on record: GST-Bcl-B / FITC-TR3 peptide fluorescence polarization; stronger effect = higher value; compound at 3.75 mg/L. On the technique in general: Fluorescence polarisation rises when a labelled molecule tumbles more slowly, as on binding a larger partner.
UniProt Q9HD36, sequence (Q9HD36 whole entry, looked up): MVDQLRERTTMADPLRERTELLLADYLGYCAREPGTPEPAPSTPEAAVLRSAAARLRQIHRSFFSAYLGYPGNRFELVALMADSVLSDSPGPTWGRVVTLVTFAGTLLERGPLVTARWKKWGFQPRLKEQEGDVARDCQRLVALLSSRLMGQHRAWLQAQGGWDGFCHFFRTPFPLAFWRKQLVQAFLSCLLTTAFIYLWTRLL
Take `COc1ccc(C2CC(c3ccccc3O)=NN2)cc1` (stereo not given): the displacement was -8.7%. For `CCOC(=O)C1=C(C)N(C)C(=O)NC1c1cc2c(cc1[N+](=O)[O-])OCO2` (stereo not given) the value was 33.2%. The value for `O=C(COc1ccccc1)NCCc1ccccc1` was 13.7%; that for `Cc1cc([N+](=O)[O-])ccc1-c1ccc(C(=O)Nc2ccc3oc(-c4ccccc4)nc3c2)o1` was 116%. As to `ONC(=Nc1ccc2c(c1)OCO2)C(=Nc1ccc2c(c1)OCO2)NO`, the displacement was determined as 21.2%. On to `COC(=O)C1=C(C)N=c2s/c(=C/c3ccc(-c4cccc([N+](=O)[O-])c4)o3)c(=O)n2C1c1ccc(OC(C)=O)cc1` (stereo not given), for which the displacement stood at 5.7%. `O=C(COc1ccc(Cl)cc1Cl)Nc1ccc(S(=O)(=O)Nc2ncccn2)cc1`: the displacement was determined as 11.8%. For `COc1cc(/C=C2/C(=O)NN(c3ccc(C)c(C)c3)C2=O)cc([N+](=O)[O-])c1O`, the displacement is 13.5%. Consider `Cc1ccc(C=Nc2ccccc2C(N)=O)cc1`, for which the displacement is -12.9%. Take `COc1cc(/C=C2/SC(=S)N(C)C2=O)cc(Cl)c1OCCOc1ccc(C(C)(C)C)cc1`: the displacement came to 6.8%.

Turning to `CCC(=O)N1CCN(c2ccc([N+](=O)[O-])cc2F)CC1`, the displacement was -6.6%. Regarding `COCCNC(=O)c1nn2c(C(F)(F)F)cc(-c3ccc(OC)cc3)nc2c1Cl`, the displacement was -2.4%. The value for `COc1ccc2c3c(cccc13)OCC2=O` was 13.3%; that for `O=[N+]([O-])c1cccc(S(=O)(=O)NCc2ccccn2)c1` was 7.9%; that for `Cc1ccc(C2N(Cc3ccccc3)CCN2Cc2ccccc2)s1` was -1.7%. The value for `CC(=O)c1cccc(Oc2ncnc3sc4c(c23)CCCC4)c1` was -2.8%; that for `O=C(CN(Cc1ccccc1)Oc1ccccc1)N/N=C/c1ccc(Cl)c(Cl)c1` was -6.7%; that for `O=C(O)CSCCS(=O)(=O)c1ccccc1` was -3.6%.

For `Clc1ccccc1COc1ccccc1/C=N/Nc1nc(N2CCOCC2)nc(N2CCOCC2)n1`, the displacement was -1%. In the case of `C=CCNC(=O)c1cc(Cl)c(OC)c(Cl)c1`, the displacement was 8.7%. As to `CS(=O)(=O)N(Cc1ccc(C(=O)Nc2ccc(Cl)c(C(F)(F)F)c2)cc1)c1ccccc1`, the displacement came to 9.4%. For `COC(=O)c1c(C)c(-c2cccs2)nc2ccccc12` the value was -8.5%; for `CCOC(=O)C(Sc1n[nH]c(=O)[nH]c1=O)c1ccccc1` (stereo not given), 0.4%. For the compound `CCOC(=O)C1=CN(c2ccc(OCC)cc2)C=C(C(=O)OCC)C1c1cccc(F)c1`, the displacement was -7.8%.

Consider `C=CCN(CP(=O)(OCC)OCC)C(=O)c1ccccc1F`, for which the displacement was -16.7%. As to `COc1cccc(NC(=O)C(=O)NCC(C)C)c1`, the displacement was 9.2%. The value for `CC(NC(=O)CN(Cc1ccccc1)S(=O)(=O)c1ccccc1)c1ccccc1` (stereo not given) was 9.1%; that for `CCOc1cc(C2Nc3ccccc3C(=O)N2c2ccc(C)cc2)ccc1O` (stereo not given) was 13.4%; that for `O=C1c2ccccc2C(=O)N1n1cnnc1` was 2.9%. Turning to `Cc1cc(C)nc(SCC2COc3ccccc3O2)n1` (stereo not given), the displacement is -3.7%.
